Results taken from PubChem BioAssay AID995 (National Center for Advancing Translational Sciences (NCATS), 2007).
Values joined by “and” are separate entries in the source; they are usually repeats but may differ in a detail not shown here. Equal entries are not always repeated. Out of some 72,000 compounds screened, about 710 (0.99%) were called active. The inconclusive results got no clear call from the source; some entries with a clear call stand among them for comparison. Calls follow the shape of the dose curve; as a rule, active = well fitted inhibition curve with a large enough effect; inconclusive = small, poorly fitted or top-dose-only effect; inactive = no such curve, though single readings can be large or run the other way. No potency is given beside an inconclusive call; the fits are too rough.
% is scaled to controls: 0 for no effect and ±100 for the full control effect; potency is read from the fitted curve at half-maximal effect; tags tell the direction and shape of the fitted curve.

Test: qHTS Assay for Inhibitors of the ERK Signaling Pathway using a Homogeneous Screening Assay; also: nearly all actives have a fitted effect of over 55% in size
Conditions: HEK293-V1b, vasopressin-stimulated pERK AlphaScreen; activity, negative = inhibition: at 57.5 µM (top of the series) unless noted
Outline: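 V1b-HEK293 cells; cpd 30 min 37C; 25 nM vasopressin 5 min; lyse 10 min; AlphaScreen beads 5 hr RT. Normalized to DMSO basal and 25 nM vasopressin; AC50 by Hill fit.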
For COc1ccc(Cn2c(CCC(=O)Nc3ccc(CC#N)cc3)nc3cccnc32)cc1, the Potency was inconclusive [inhibitor, partial curve].
With O=C(NC1CCS(=O)(=O)C1)OC1CCCCC1 (stereo not drawn) the “activity, negative = inhibition” value was inactive: -4.26%.
For CCOc1ccccc1NC(=O)Cn1cnc2c(cnn2-c2ccc(C)c(C)c2)c1=O, the Potency was inconclusive [inhibitor, partial curve, poor fit].
For O=C(Nc1c(F)cc(F)cc1Br)c1cc(-c2ccco2)on1, the “activity, negative = inhibition” value was inactive: -17.1%.
In the case of CCOC(=O)Cc1csc(SCC(=O)Nc2sc3c(c2C(N)=O)CCC3)n1, the Potency was inconclusive [inhibitor, single point].
With Cc1nn(CC(=O)NCCc2ccccc2)c(=O)c2ccccc12 the Potency was inconclusive [inhibitor, partial curve, poor fit].
For COC(=O)c1ccc(C(NC(=O)OCc2ccccc2)/C(F)=C/[C@@H](C)C(=O)NCc2ccc(OC)c(OC)c2)cc1 (stereo partly drawn), the “activity, negative = inhibition” value was inactive: -15.7%.
In the case of COc1ccc(Cl)cc1N=Nc1ncc[nH]1, the Potency was inconclusive [inhibitor, full curve, poor fit].
In the case of COc1nc(N(c2ccccc2)c2ccccc2)nc(-n2ccnc2)n1, the Potency was inconclusive [inhibitor, partial curve, poor fit].
With Cc1ccc2nc3c(cc2c1)c(NC(=O)c1cccnc1)nn3C the Potency was inconclusive [inhibitor, partial curve].
In the case of Clc1ccc(-c2noc(CN3CCCCC3)n2)cc1, the Potency was inconclusive [inhibitor, partial curve].
With CCCNC(=O)c1cccc(Cn2nc(C)c(Br)c2C)c1 the Potency was inconclusive [inhibitor, single point].
In the case of C=CCn1c(C)cc(C(=O)CSc2nnc(-c3cccc(S(=O)(=O)N(CC)CC)c3)o2)c1C, the Potency was inconclusive [inhibitor, partial curve, poor fit].
For CN(C)c1ncc2nc(-c3cccs3)c(=O)n(CCC#N)c2n1, the Potency was inconclusive [inhibitor, partial curve].
For C=CCn1c(Cc2cccs2)nnc1SCC(=O)c1cccc(Br)c1, the Potency was inconclusive [inhibitor, single point].
With CN(C)CCCOC(=O)c1cc2ccccc2o1 the Potency was inconclusive [inhibitor, single point].
With O=c1c(-c2ccc(F)cc2)nc2cncnc2n1C1CC1 the Potency was inconclusive [inhibitor, full curve, poor fit].
For CC(C(=O)NC1CCCC1)N(C(=O)c1snc(C(N)=O)c1N)c1ccc2c(c1)OCCO2 (stereo not drawn), the “activity, negative = inhibition” value was inactive: -13%.
For Cc1nc2scc(-c3cccs3)c2c(=O)o1, the “activity, negative = inhibition” value was inactive: 3.84%.
In the case of CCc1ccc(-c2nc(CSCC(=O)N3CCN(c4ncccn4)CC3)c(C)o2)cc1, the Potency was inconclusive [inhibitor, single point].
With COc1ccccc1NC(=O)c1ccc(-c2ccccc2F)o1 the “activity, negative = inhibition” value was inactive: -3.79%.
For COc1ccc(-c2cn3cc(C)ccc3n2)cc1OC, the Potency was inconclusive [inhibitor, partial curve].
In the case of CN(c1ccc(C(=O)Nc2nccs2)cc1)S(=O)(=O)c1ccccc1, the Potency was inconclusive [inhibitor, single point].
With CC(C)C(NC(=O)OCc1ccccc1)C(=O)NCC(=O)OC(C)(C)C (stereo not drawn) the Potency was inconclusive [inhibitor, partial curve, poor fit].
For Cc1cc2c(nc1C)CCCN2C[C@H](O)CN1CCCc2nc(-c3ccc(Br)cc3)ccc21, the activity, negative = inhibition was inactive: 13.4% [at 11.5 µM] and inactive: -7.26% [at 11.5 µM].
With COc1ccccc1Nc1nc(N)nc(CN2CCCCCC2)n1 the Potency was inconclusive [inhibitor, single point].
For COc1ccc(S(=O)(=O)N2CCN(c3cc(-c4ccccc4)nc4ncnn34)CC2)cc1, the “activity, negative = inhibition” value was inactive: 11.9%.
In the case of COc1ccc(CN(Cc2cc3cc4c(cc3[nH]c2=O)OCO4)C(=O)NC2CCCCC2)cc1, the Potency was inconclusive [inhibitor, full curve, poor fit].
